# Experimental data published in PubChem BioAssay AID1460 (National Center for Advancing Translational Sciences (NCATS), 2008).
# Several values for one entry are separate records, joined by “and”; a condition that tells them apart may be missing. Equal entries are not always repeated. The campaign covered roughly 270,000 compounds. About 5,800 (2.1%) were called active. Inconclusive means that the source gave no clear call. Such entries were picked first, then a sample of the others. Calls come from the whole dose curve; as a rule, active = well fitted inhibition curve with a large enough effect; inconclusive = small, poorly fitted or top-dose-only effect; inactive = flat fitted curve, though single readings scatter. Where the call is inconclusive, the potency comes from a doubtful curve fit. More than one record can exist for a structure, and the calls need not agree.
# Target: Microtubule-associated protein tau (Homo sapiens) (UniProt P10636)
# Chain of UniProt P10636 (P10636 whole entry, looked up): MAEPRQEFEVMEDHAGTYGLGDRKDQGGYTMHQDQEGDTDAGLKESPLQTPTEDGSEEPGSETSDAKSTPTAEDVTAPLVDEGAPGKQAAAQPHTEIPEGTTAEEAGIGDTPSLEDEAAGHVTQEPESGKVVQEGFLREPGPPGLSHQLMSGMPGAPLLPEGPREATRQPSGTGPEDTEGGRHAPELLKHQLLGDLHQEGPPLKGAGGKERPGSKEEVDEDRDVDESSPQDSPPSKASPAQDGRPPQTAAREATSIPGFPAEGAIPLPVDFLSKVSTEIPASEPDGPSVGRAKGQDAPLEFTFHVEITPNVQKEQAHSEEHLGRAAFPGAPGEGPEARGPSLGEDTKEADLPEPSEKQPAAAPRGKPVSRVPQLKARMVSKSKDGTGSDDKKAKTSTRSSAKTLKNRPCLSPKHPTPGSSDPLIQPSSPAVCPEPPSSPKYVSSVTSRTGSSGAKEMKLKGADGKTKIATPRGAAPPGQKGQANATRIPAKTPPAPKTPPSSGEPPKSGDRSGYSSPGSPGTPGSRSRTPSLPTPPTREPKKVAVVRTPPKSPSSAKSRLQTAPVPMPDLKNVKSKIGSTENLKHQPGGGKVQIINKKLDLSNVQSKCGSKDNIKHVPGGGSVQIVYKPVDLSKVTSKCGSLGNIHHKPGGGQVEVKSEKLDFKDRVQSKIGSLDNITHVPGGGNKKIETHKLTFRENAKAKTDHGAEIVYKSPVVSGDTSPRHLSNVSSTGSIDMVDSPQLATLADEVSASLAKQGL
# Assay: qHTS for Inhibitors of Tau Fibril Formation, Thioflavin T Binding; note: nearly all actives have a fitted effect of over 55% in size
# Conditions: recombinant tau K18 P301L (four-repeat tau fragment), heparin-induced fibrillization, ThT fluorescence; series mostly up to 57.4 µM; activity, negative = inhibition: at the top concentration
# Procedure, shortened: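 In this qHTS, human K18 P301L tau is incubated with compound and heparin for 6 hr at 37 C, and Thioflavin T fluorescence then reports fibril load.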
# % is set by controls: 0 for no effect and ±100 for the full control effect; potency is the fitted concentration of half-maximal effect; tags give direction and shape of the fitted curve.
Structure (SMILES),"activity, negative = inhibition",Potency
C=CCNC(=O)c1c(Cl)cnn1-c1ccc(C)cc1,inactive: -7.59%,–
Cc1ccc([N+](=O)[O-])cc1NC(=S)NC(=O)C(C)(C)C,inactive: -2.18%,–
O=C(/C=C/c1ccc(Cl)c([N+](=O)[O-])c1)Nc1ccc(N2CCCC2)cc1,–,active: 0.891 µM
COc1cccc(CN(Cc2ccco2)c2cnc(S(C)(=O)=O)nc2C(=O)Nc2cccc(Cl)c2C)c1,inactive: -7.29%,–
Cn1c(SCC(=O)N2CCCc3ccccc32)ncc(C(=O)Nc2ccc(Cl)cc2)c1=O,–,"inconclusive: 11.2 µM [inhibitor, partial curve]"
CC(=O)Nc1cccc(-c2csc(Nc3cccc(C)n3)n2)c1,–,"inconclusive: 8.91 µM [inhibitor, partial curve]"
C#CCSc1nsc(SCC#C)c1C#N,–,"inconclusive: 28.2 µM [inhibitor, single point]"
COc1cc(NC(=O)CN2CCN(c3ccccc3F)CC2)cc(OC)c1,inactive: -1.05%,–
O=C(CSc1nnc(C2COc3ccccc3O2)o1)N1CCCc2ccccc21 (stereo not given),–,"inconclusive: 11.2 µM [inhibitor, partial curve]"
CC(C)c1nc2sc3c(NCc4ccco4)ncnc3c2c2c1COC(C)(C)C2,–,"inconclusive: 31.6 µM [inhibitor, single point]"
O=C1SC(SCc2ccccc2)=N/C1=C\c1ccco1,–,"inconclusive: 22.4 µM [inhibitor, partial curve]"
COc1ccc(N2CCN(C(=O)Cn3nnc(-c4ccccc4N)n3)CC2)cc1,–,"inconclusive: 6.31 µM [inhibitor, partial curve]"
O=C(O)c1cccc(-c2ccc(/C=c3/sc4nc5ccccc5n4c3=O)o2)c1,–,"inconclusive: 17.8 µM [inhibitor, partial curve]"
O=C(Cc1cccc2ccccc12)NN1C(=O)C2C(C1=O)C1C=CC2C12CC2 (stereo not given),inactive: -3.54%,–
CCOc1cc(C(=O)Nc2cccc(-c3nc4ccccc4o3)c2)cc(OCC)c1OCC,inactive: -1.09%,–
CCCc1ccc(Oc2cc(C)nc(N3CCOCC3)n2)cc1,inactive: -7.9%,–
Cc1cc(C(=O)OCc2nnc(-c3ccccc3)o2)c(C)n1-c1ccccc1,–,"inconclusive: 12.6 µM [inhibitor, partial curve]"
Cc1c(-c2ccccc2)n[nH]c1C(=O)N=Nc1c(O)[nH]c2ccccc12,–,"inconclusive: 2 µM [inhibitor, full curve]"
CSc1cccc(-n2cc(-c3ccc4c(c3)OCO4)[nH]c2=O)c1,–,"inconclusive: 15.8 µM [inhibitor, partial curve]"
COc1ccc(C2=NN(CN3C(=O)C(=O)c4ccccc43)C(c3ccc(Br)cc3)C2)cc1 (stereo not given),–,"inconclusive: 22.4 µM [inhibitor, partial curve]"
O=C(Nc1nnc(SCc2ccc(F)cc2)s1)C1Cc2ccccc2CN1C(=O)c1ccco1 (stereo not given),–,"inconclusive: 39.8 µM [inhibitor, partial curve, poor fit]"
Cc1ccc(-c2onc(C)c2C)cc1S(=O)(=O)NCc1ccco1,inactive: 7.49%,–
COc1cccc(OCCCCn2c(-c3ccc(Cl)cc3)nc3ccccc3c2=O)c1,inactive: 0.68%,–
Fc1ccccc1N1CCN(c2ncnc3[nH]ncc23)CC1,–,"inconclusive: 17.8 µM [inhibitor, partial curve]"
CC[C@@H]1C(c2ccc(F)cc2)=NN(c2ccc(Br)cc2)[C@H]1C(=O)N1CCOC1=O,–,"inconclusive: 25.1 µM [inhibitor, partial curve, poor fit]"

Structure (SMILES),"activity, negative = inhibition",Potency
CC(C)NC(=O)Cn1nnc(-c2ccc(Cl)cc2)n1,–,active: 25.1 µM
CC1=CC(C)(C)Nc2ccc(OC(=O)CN3C(=O)c4cccc5cccc(c45)C3=O)cc21,–,active: 12.6 µM
Nc1nc(-c2ccccc2)cc(-c2ccccc2O)n1,–,"inconclusive: 5.01 µM [inhibitor, full curve]"
O=c1oc(-c2ccccc2F)nc2scc(-c3ccccc3)c12,–,"inconclusive: 39.8 µM [inhibitor, single point]"
CCS(=O)(=O)N1CCC(C(=O)NCCC(C)C)CC1,inactive: 0.325%,–
Cn1nc(-c2ccc(OCC(=O)Nc3cccnc3)cc2)c2ccccc2c1=O,inactive: -14.4%,–
Nc1ccc2nc[nH]c2c1,–,"inconclusive: 4.47 µM [inhibitor, full curve]"
O=C(NC1CCCCC1)C(c1cccnc1)N(C(=O)CCl)c1cccc(Cl)c1 (stereo not given),–,"inconclusive: 31.6 µM [inhibitor, partial curve]"
COc1ccc(C(=O)C[n+]2ccc3ccccc3c2C)cc1,–,"inconclusive: 3.55 µM [inhibitor, partial curve]"
COc1ccc(NCC(=O)Nc2ccc(Br)cc2F)c(OC)c1,–,"inconclusive: 17.8 µM [inhibitor, partial curve]"
O=C1C2CCCCC2C(=O)N1Cc1ccccc1 (stereo not given),inactive: -3.06%,–
COC(=O)c1c(-c2cccs2)csc1NC(=O)c1ccc(Cl)cc1,–,active: 12.6 µM
Cc1ccc(CNC(=O)CSc2ccsc2[N+](=O)[O-])cc1,–,"inconclusive: 6.31 µM [inhibitor, full curve, poor fit]"
CCOC(=O)N1CCC(NC(=O)C2CCN(c3ccc(N4CCOCC4)nn3)CC2)CC1,–,"inconclusive: 1 µM [inhibitor, full curve]"
c1cc2c3c(cccc3c1)NC1(CCC3(CC1)Nc1cccc4cccc(c14)N3)N2,–,active: 15.8 µM
CCOC(=O)c1c(C)sc2c1N(C(=O)CCl)c1cc(Cl)ccc1S2,–,"inconclusive: 22.4 µM [inhibitor, partial curve]"
CCCCN1C(=O)Cc2c1nc(N)c1c(N)nc(N(CCC)CCC)c(C#N)c21,–,"inconclusive: 17.8 µM [inhibitor, partial curve]"
COc1ccc2nc(SCC(=O)Nc3ccc4c(c3)CCC4)[nH]c2c1,–,"inconclusive: 15.8 µM [inhibitor, partial curve]"
CCOC(=O)NC(=O)CSc1cc(C)c2cc(C)cc(C)c2n1,–,"inconclusive: 22.4 µM [inhibitor, partial curve]"
O=C(CSc1nc2[nH]ncc2c(=O)n1-c1ccccc1Br)NCc1ccccc1Cl,inactive: -18.5%,–
CCCN(CCC)C(=O)CSc1nnc2cc(C)c3cc(C)cc(C)c3n12,inactive: -6.32%,–
CCN(CC)CCCn1c(-c2ccccc2)nc2c(N(CCOC)CCOC)nc(C)nc21,inactive: -1.02%,–
CC1CC(OCC(O)C[N+]2(C)CCOCC2)CC(C)(C)C1 (stereo not given),inactive: -0.745%,–
CSc1nc2ccc(Cl)cc2[nH]1,inactive: -3.31%,–
Cn1c(=O)[nH]c(=O)c2[nH]c(N(Cc3ccccc3)Cc3ccccc3)nc21,–,"inconclusive: 10 µM [inhibitor, partial curve]"

Structure (SMILES),"activity, negative = inhibition",Potency
NC(=O)CC(NC(=O)Cc1ccc(Cl)cc1)c1ccc(NC2CCCCC2)c([N+](=O)[O-])c1 (stereo not given),–,"inconclusive: 22.4 µM [inhibitor, partial curve]"
COc1cc(N=C2C(=O)N3CCCc4cccc2c43)cc(OC)c1,inactive: -13%,–
Cc1ccc2cccc(NC(=O)COc3ccccc3[N+](=O)[O-])c2n1,inactive: -6.16%,–
CCCCc1ccc(-n2nc3cc(C)c(NC(=O)Cc4ccccc4)cc3n2)cc1,–,active: 31.6 µM
O=c1c(C=Nc2ccc(Oc3ccccc3)cc2)c[nH]n1-c1cccc(Cl)n1,–,"inconclusive: 3.98 µM [inhibitor, full curve]"
N#C/C(=C\c1ccc([N+](=O)[O-])cc1)C(=O)Nc1ccccc1O,–,"inconclusive: 15.8 µM [inhibitor, partial curve]"
CCOCCCNC(=O)c1ccccc1Br,inactive: 1.32%,–
COc1ccc2c(c1)c1c(c(=O)n(-c3ccccc3C)c(=O)n1CC(=O)NCc1ccc(C)cc1)n2C,inactive: -7.37%,–
CN(CCc1ccccn1)Cc1ccc(Cl)cc1,inactive: 8.32%,–
Cc1cc(Nc2ccc(C)c(C)c2)n2cnnc2n1,inactive: -4.11%,–
C=C(C)Cn1cnc2c(oc3nc4c(cc32)CCCC4)c1=O,inactive: -11%,–
O=C(Nc1cc(C(F)(F)F)cc(C(F)(F)F)c1)Nc1cnn(-c2ccc([N+](=O)[O-])cc2)c1C(F)(F)F,–,"inconclusive: 2.82 µM [inhibitor, full curve, poor fit]"
C/C(=N\NC(=O)c1nn(C)cc1Br)c1ccc(NC(=O)c2ccncc2)cc1,–,"inconclusive: 0.708 µM [inhibitor, full curve]"
Cc1cccc(OCc2ccc(-c3nc(C#N)c(NCCN(C)C)o3)o2)c1,inactive: -5.42%,–
Cc1ccc(S(=O)(=O)c2cnc(SCC(=O)Nc3cc(C)cc(C)c3)nc2N)cc1,–,"inconclusive: 39.8 µM [activator, single point]"
Cc1nnc(SCc2ccc(C(=O)c3ccc(Cl)cc3)o2)n1-c1ccccc1,–,"inconclusive: 28.2 µM [inhibitor, single point]"
COC(=O)c1ccc(C(=O)OC)c(NC(=O)/C=C/C(=O)O)c1,inactive: -15%,–
CCOc1ccccc1NC(=O)CCCn1cc([N+](=O)[O-])cn1,inactive: 1.47%,–
C[C@@](Cc1ccc(O)c(O)c1)(NN)C(=O)O,–,active: 15.8 µM and active: 14.1 µM
COc1ccc(C(=O)Nc2ccc(-c3nc4ncccc4o3)cc2)cc1,–,"inconclusive: 0.355 µM [inhibitor, full curve, poor fit]"
CC(C)c1[nH]nc2c1C(c1ccco1)C(C#N)=C(N)O2 (stereo not given),inactive: 8.74%,–
CC(=O)Nc1ccc(/C=N/Nc2nc3ccccc3s2)cc1,–,"inconclusive: 2.82 µM [inhibitor, full curve]"
COCCNC(=O)NC1(C(F)(F)F)Oc2ccc(Cl)cc2O1 (stereo not given),–,"inconclusive: 31.6 µM [inhibitor, partial curve]"
CC(C)c1ccc(C2C(C#N)=C(N)Oc3c2oc(CO)cc3=O)cc1 (stereo not given),inactive: -9.29%,–
CCOC(=O)c1c(NC(=O)/C=C/c2ccccc2)sc2c1CCCC2,inactive: -6.14%,–
